Source: PMC6919601, “Identification of Plasmodium dipeptidyl aminopeptidase allosteric inhibitors by high throughput screening” (PLoS ONE, 2019)
Screen size: about 110,000 compounds; about 230 (0.21%) showed an effect of 50% or more. Some of the results follow.

These molecules were tested against DPAP1 (Plasmodium falciparum, UniProt Q8IIJ9) (assay: primary screen, percent inhibition; read by cleavage of a fluorogenic dipeptide substrate; higher = more effect of the substance).
Set-up: species or system P. falciparum D10 trophozoite lysates; single well
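Further: 30 min substrate incubation versus DMSO and 10 µM JCP410 controls.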

Chain of DPAP1 (Q8IIJ9 whole entry, looked up): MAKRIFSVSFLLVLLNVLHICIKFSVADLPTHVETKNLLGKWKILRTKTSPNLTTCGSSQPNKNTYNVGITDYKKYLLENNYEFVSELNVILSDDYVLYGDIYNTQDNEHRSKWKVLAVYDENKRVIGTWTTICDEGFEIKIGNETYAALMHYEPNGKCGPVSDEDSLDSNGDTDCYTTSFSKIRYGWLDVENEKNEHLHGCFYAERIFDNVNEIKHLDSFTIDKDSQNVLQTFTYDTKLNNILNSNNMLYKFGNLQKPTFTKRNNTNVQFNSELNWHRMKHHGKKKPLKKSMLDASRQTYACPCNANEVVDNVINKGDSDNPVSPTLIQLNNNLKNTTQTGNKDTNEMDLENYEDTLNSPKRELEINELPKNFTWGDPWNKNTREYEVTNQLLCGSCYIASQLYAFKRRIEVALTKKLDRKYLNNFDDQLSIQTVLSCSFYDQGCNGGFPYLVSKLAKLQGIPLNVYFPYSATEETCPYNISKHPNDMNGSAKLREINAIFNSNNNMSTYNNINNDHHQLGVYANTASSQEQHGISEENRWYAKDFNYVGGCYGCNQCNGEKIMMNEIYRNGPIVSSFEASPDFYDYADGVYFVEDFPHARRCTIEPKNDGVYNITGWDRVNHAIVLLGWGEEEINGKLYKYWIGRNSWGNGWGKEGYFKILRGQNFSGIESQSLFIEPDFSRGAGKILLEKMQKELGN

**Q.** For `CC(=O)Nc1ccc(NC(=O)c2cccc(Br)c2)cc1`, which “% Inhibition @ 10 uM” value is on record?
**A.** -3.13%

**Q.** With `CC(=O)c1cnc2cc(-c3ccc(Cl)cc3)nn2c1C` as the molecule, how does the “% Inhibition @ 10 uM” value read?
**A.** 1.39%

**Q.** `Cc1cc(C(=O)O)c2cc(O)ccc2n1` was tested. Which “% Inhibition @ 10 uM” value did it give?
**A.** -1.97%

**Q.** With `Cc1ccc(NC(=O)Nc2ccccc2)c(Br)c1` as the molecule, how does the “% Inhibition @ 10 uM” value read?
**A.** -2.55%

**Q.** How did the “% Inhibition @ 10 uM” value turn out when `Cc1ccc(Cl)cc1NC(=O)COc1ccc(S(=O)(=O)NC(C)C)cc1` was run?
**A.** 5.31%

**Q.** `COCCCNC(=O)c1cc2c(Cl)nc3ccc(C)cc3c2s1` was tested. Which “% Inhibition @ 10 uM” value did it give?
**A.** -1.7%

**Q.** With `COCc1cc(C)nc2sc3c(ncn4c5ccccc5nc34)c12` as the molecule, how does the “% Inhibition @ 10 uM” value read?
**A.** -0.854%

**Q.** With `C=CCn1c(SCC(=O)N2CCOCC2)nc2sc3c(c2c1=O)CCC3` as the molecule, how does the “% Inhibition @ 10 uM” value read?
**A.** -4.4%

**Q.** How did the “% Inhibition @ 10 uM” value turn out when `OCC1CCCCN1CCCc1ccccc1` (centres unmarked) was run?
**A.** 4.55%

**Q.** How did the “% Inhibition @ 10 uM” value turn out when `Cc1nc2cc(-c3ccc(Cl)cc3)nn2c(C)c1CCC(=O)N1CCCC1` was run?
**A.** -2.25%

**Q.** How did the “% Inhibition @ 10 uM” value turn out when `CNC(=O)C1CCCN(c2nn3cc(-c4ccc(OC)cc4)nc3s2)C1` (centres unmarked) was run?
**A.** 2.47%

**Q.** `O=C(COc1ccc(Cl)cc1Cl)N1CCN(c2ccccc2)CC1` was tested. Which “% Inhibition @ 10 uM” value did it give?
**A.** 0.0657%

**Q.** For `Cc1ccccc1C1C2=C(CCCC2=O)OC2=C1C(=O)CCC2`, which “% Inhibition @ 10 uM” value is on record?
**A.** -5.83%

**Q.** With `CCOC(=O)C1CCCN(Cc2ccc(Br)s2)C1` (centres unmarked) as the molecule, how does the “% Inhibition @ 10 uM” value read?
**A.** -1.86%

**Q.** For `N#C[C@H](CC(=O)OCc1ccccc1)NC(=O)[C@H](CC1CCCCC1)NC(=O)OCc1ccccc1`, which “% Inhibition @ 10 uM” value is on record?
**A.** -3.04%

**Q.** For `CCCCN(C)C1CCN(CCC)CC1`, which “% Inhibition @ 10 uM” value is on record?
**A.** -0.0908%

**Q.** How did the “% Inhibition @ 10 uM” value turn out when `Fc1ccc(-c2ncnn2-c2ccccc2C(F)(F)F)cc1` was run?
**A.** 4.74%

**Q.** How did the “% Inhibition @ 10 uM” value turn out when `COCCCNC(=O)Cn1c(-c2cccs2)cc2ccccc21` was run?
**A.** -3.34%

**Q.** How did the “% Inhibition @ 10 uM” value turn out when `CC1=CC2=NC(=O)/C(=C\c3cc(C)n(-c4cccc(Cl)c4C)c3C)C(=N)N2O1` was run?
**A.** -1.43%

**Q.** For `CCCNC(=O)CN(C)c1nn2c(=O)cc(C)nc2s1`, which “% Inhibition @ 10 uM” value is on record?
**A.** -7.54%

**Q.** For `O=c1[nH]c(=O)n(CCc2ccccc2)c2c1C(C(F)(F)F)(C(F)(F)F)NC(c1ccco1)=N2`, which “% Inhibition @ 10 uM” value is on record?
**A.** 0.032%

**Q.** How did the “% Inhibition @ 10 uM” value turn out when `CC(C)C(=O)n1nc(-c2cccnc2)nc1NCc1ccccc1` was run?
**A.** -4.75%

**Q.** How did the “% Inhibition @ 10 uM” value turn out when `O=C(CSc1ncccc1C(=O)O)NC1CCCCC1` was run?
**A.** 1.16%

**Q.** Which “% Inhibition @ 10 uM” value does the source give for `Cn1c(=O)n(Cc2ccccc2)c(=O)c2c1nc(NCC1CCCO1)n2Cc1ccccc1` (centres unmarked) here?
**A.** -1.5%

**Q.** How did the “% Inhibition @ 10 uM” value turn out when `N#Cc1c(-c2ccccc2)cc(C2CC2)nc1N` was run?
**A.** 3.16%

**Q.** For `O=S(=O)(c1ccccc1)n1nnc2ccccc21`, which “% Inhibition @ 10 uM” value is on record?
**A.** 0.78%

**Q.** How did the “% Inhibition @ 10 uM” value turn out when `CC(C)(C)Nc1nc(Cl)nc(NC2CCCCC2)n1` was run?
**A.** 3%

**Q.** For `O=C(NCC1CCCO1)C1CCCCN1S(=O)(=O)c1ccc(F)cc1` (centres unmarked), which “% Inhibition @ 10 uM” value is on record?
**A.** 3.34%

**Q.** With `CCc1c(C)sc(NC(=O)c2cccs2)c1C#N` as the molecule, how does the “% Inhibition @ 10 uM” value read?
**A.** 2.69%

**Q.** How did the “% Inhibition @ 10 uM” value turn out when `COc1ccccc1NC(=O)COc1ccc(S(=O)(=O)N2CCCC2)cc1` was run?
**A.** 10.2%

**Q.** Which “% Inhibition @ 10 uM” value does the source give for `FC(F)(F)c1ccc(-c2noc(Cc3ccccc3)n2)cc1` here?
**A.** -2.4%

**Q.** How did the “% Inhibition @ 10 uM” value turn out when `CCc1ccc(NC(=O)CN(Cc2ccc(F)cc2)S(=O)(=O)c2ccccc2)cc1` was run?
**A.** -7.32%

**Q.** How did the “% Inhibition @ 10 uM” value turn out when `COc1ccc2[nH]cc(CCNC(=O)c3ccc(Cl)cc3)c2c1` was run?
**A.** -1.86%

**Q.** `COc1ccc(CN2C(=O)C3C(c4ccc(C)cc4)OC4(C(=O)c5ccccc5C4=O)C3C2=O)cc1` (centres unmarked) was tested. Which “% Inhibition @ 10 uM” value did it give?
**A.** 6%

**Q.** For `CC1(NC(=O)NCc2ccccc2)CCS(=O)(=O)C1` (centres unmarked), which “% Inhibition @ 10 uM” value is on record?
**A.** -0.0267%

**Q.** `COc1ccc(-c2nnc(C3CCN(S(=O)(=O)c4ccc(C(C)(C)C)cc4)CC3)o2)cc1` was tested. Which “% Inhibition @ 10 uM” value did it give?
**A.** -4.74%

**Q.** For `O=C(Cn1ncc2ccsc2c1=O)NCCc1ccc(Cl)cc1`, which “% Inhibition @ 10 uM” value is on record?
**A.** -1.21%

**Q.** For `CCO/C(O)=C1\C(CC)=NC2=C(C(=O)CCC2)C1c1ccc(Cl)c(Cl)c1` (centres unmarked), which “% Inhibition @ 10 uM” value is on record?
**A.** 4.74%

**Q.** With `Cc1ccc(F)c(NC(=O)Nc2cccc(Cl)c2)c1` as the molecule, how does the “% Inhibition @ 10 uM” value read?
**A.** -2.18%

**Q.** For `Cc1oc(-c2ccc(C(=O)NCCc3ccc(Cl)cc3)cc2)nc1CS(=O)c1ccccc1` (centres unmarked), which “% Inhibition @ 10 uM” value is on record?
**A.** -2.01%

**Q.** Which “% Inhibition @ 10 uM” value does the source give for `CCOC(=O)c1[nH]nc2c1C(=O)N(Cc1ccccc1)C2=O` here?
**A.** 1.74%

**Q.** `CC(=O)N1CCC(NCC2CCCCC2)CC1` was tested. Which “% Inhibition @ 10 uM” value did it give?
**A.** 1.9%

**Q.** For `COc1cccc(C2C(C(C)=O)=C(O)C(=O)N2CCc2c[nH]c3ccccc23)c1` (centres unmarked), which “% Inhibition @ 10 uM” value is on record?
**A.** 0.755%

**Q.** How did the “% Inhibition @ 10 uM” value turn out when `Cc1ccc(/C(O)=C/c2nc3ncc(Br)cc3nc2O)cc1` was run?
**A.** -4.66%

**Q.** Which “% Inhibition @ 10 uM” value does the source give for `CNC(=O)c1ccccc1NC(=O)c1ccc(Cl)cc1Cl` here?
**A.** -0.473%

**Q.** `CCn1c2ccccc2c2cc(CN3CCc4cc(OC)c(OC)cc4C3)ccc21` was tested. Which “% Inhibition @ 10 uM” value did it give?
**A.** 5.55%

**Q.** How did the “% Inhibition @ 10 uM” value turn out when `N=c1c2c3c(sc2nc2n1CCCCC2)CCCCC3` was run?
**A.** 6.22%

**Q.** How did the “% Inhibition @ 10 uM” value turn out when `CN(C)S(=O)(=O)c1ccc(Sc2ccccc2)c(CO)c1` was run?
**A.** -5.31%

**Q.** For `CCOC(=O)C1=C(CN2CCC(Cc3ccccc3)CC2)NC(=O)NC1c1cccc(OC)c1OC` (centres unmarked), which “% Inhibition @ 10 uM” value is on record?
**A.** -1.3%

**Q.** How did the “% Inhibition @ 10 uM” value turn out when `CCOC(=O)N1CCC(Nc2nc3ccccc3c3nnc(C)n23)CC1` was run?
**A.** 2.5%

**Q.** How did the “% Inhibition @ 10 uM” value turn out when `Cc1ccc(-n2cc(C(C)(C)C)nc2S)cc1` was run?
**A.** -6.83%

**Q.** For `CCN(C(=O)c1ccc(Cl)cc1Cl)c1ccccc1C`, which “% Inhibition @ 10 uM” value is on record?
**A.** -2.6%

**Q.** With `O=C(NCCCc1nc2ccccc2n1CCCOc1ccccc1)c1ccco1` as the molecule, how does the “% Inhibition @ 10 uM” value read?
**A.** -2.99%

**Q.** How did the “% Inhibition @ 10 uM” value turn out when `CC(C)C[C@H](NC(=O)c1cccc(Oc2ccccc2)c1)C(=O)NCC#N` was run?
**A.** -7.36%

**Q.** `COc1cccc(C2=NOC(C(=O)N3CCN(Cc4ccccc4)CC3)C2)c1` (centres unmarked) was tested. Which “% Inhibition @ 10 uM” value did it give?
**A.** -1.7%

**Q.** For `Cc1ccc(O)c(NC(=O)c2ccc3c(c2)C(=O)N(Cc2cccnc2)C3=O)c1`, which “% Inhibition @ 10 uM” value is on record?
**A.** 0.528%

**Q.** With `Cc1ccc(NC(=O)C(Cc2c[nH]c3ccccc23)NC(=O)OC(C)(C)C)cc1` (centres unmarked) as the molecule, how does the “% Inhibition @ 10 uM” value read?
**A.** -3.69%

**Q.** `O=C1NC(=O)C(=Cc2ccccc2OCc2ccccc2Cl)C(=O)N1` was tested. Which “% Inhibition @ 10 uM” value did it give?
**A.** 2.7%

**Q.** Which “% Inhibition @ 10 uM” value does the source give for `Cc1cc(C)c(C(=O)/C=C/c2cccc(Br)c2)c(O)n1` here?
**A.** 2.41%

**Q.** Which “% Inhibition @ 10 uM” value does the source give for `CN(C)CCC1Sc2ccccc2Sc2ccccc21` (centres unmarked) here?
**A.** 1.4%

**Q.** How did the “% Inhibition @ 10 uM” value turn out when `C=CCn1c(SCC(=O)NCC2CCCO2)nc2sc3c(c2c1=O)CCC3` (centres unmarked) was run?
**A.** -2.77%

**Q.** For `CNC(=O)C1CC(=O)N(CCc2ccc(OC)cc2)/C(=N/c2ccc(OC)cc2)S1` (centres unmarked), which “% Inhibition @ 10 uM” value is on record?
**A.** 4.76%

**Q.** With `O=C(Cn1nnc2ccccc2c1=O)c1cccs1` as the molecule, how does the “% Inhibition @ 10 uM” value read?
**A.** -6.25%

**Q.** `Cc1cc(C)c(C(=O)/C=C/c2ccc(N(C)C)cc2)c(O)n1` was tested. Which “% Inhibition @ 10 uM” value did it give?
**A.** 3.54%

**Q.** For `CC1=C(C(=O)N2CCOCC2)C(c2ccc(F)c(Br)c2)C2=C(O)CCCC2=N1` (centres unmarked), which “% Inhibition @ 10 uM” value is on record?
**A.** 1.35%
